Experimental data from PubChem BioAssay AID686971 (National Center for Advancing Translational Sciences (NCATS), 2013).
Values joined by “and” are separate entries in the source; they are usually repeats but may differ in a detail not shown here. Identical values can stand only once. Screen size: about 360,000 compounds; about 7,500 (2.1%) were called active. The shares of active, inactive and inconclusive entries below differ from those in the screen. Calls come from the whole dose curve; as a rule, active = well fitted cell-killing curve with a large enough effect; inconclusive = small, poorly fitted or top-dose-only effect, or effect the other way, or another doubt; inactive = no such curve, though single readings can be large or run the other way. Potencies beside an inconclusive call are fits to weak or partial responses and may not hold up.

test: qHTS for induction of synthetic lethality in tumor cells producing 2HG: qHTS for the HT-1080-IDH1KD cell line; details: HT-1080 IDH1 knockdown viability, ATP luminescence, 48 h; activity, negative = toxicity: at 46.1 µM (top of the series) unless noted;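 for activity, negative = toxicity: 0% = DMSO wells and -100% = cell-free medium wells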
In short: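 In this qHTS, HT-1080 cells depleted of IDH1 are exposed for 48 h at 37 °C to compound titrations. Toxicity is scored from CellTiter-Glo luminescence, with DMSO as full viability and medium alone as none.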
Potency is the fitted concentration of half-maximal effect; tags give direction and shape of the fitted curve.

SMILES | activity, negative = toxicity | Potency
CC(OC(=O)c1ccc(S(=O)(=O)N2CCCCC2)cc1)C(=O)NC1CCCCC1C (configuration not stated) | inactive: -6.27% | –
CC(C)CC1C(=O)N(Cc2cn(Cc3ccco3)nn2)CCS(=O)(=O)N1Cc1ccc(-c2ccc(F)cc2)cc1 (configuration not stated) | – | inconclusive: 29.1 µM [cytotoxic, single point]
COc1ccc2nc3sc(C(=O)NCCCN4CCc5ccccc5C4)cc3cc2c1 | inactive: -13.4% | –
COc1ccc(C(=O)Nc2ccccc2C(=O)N/N=C/c2ccco2)cc1 | – | inconclusive: 18.4 µM [cytotoxic, single point]
Cc1ccc(C)c(S(=O)(=O)NC(C)C(=O)Nc2ccc(-c3nc4ccccc4s3)cc2)c1 (configuration not stated) | inactive: -19.3% | –
Cc1ccc(O)c(CNc2cccc3cccnc23)c1 | – | inconclusive: 8.2 µM [cytotoxic, partial curve, poor fit]
NCC1CCN(c2nc3ccccc3c3c2CCCC3)CC1 | – | inconclusive: 29.1 µM [cytotoxic, single point]
O=C1CC(N(CCc2ccccc2)C(=S)Nc2ccccc2)C(=O)N1c1ccc(Br)cc1 (configuration not stated) | – | inconclusive: 18.4 µM [cytotoxic, single point]
Cc1cccc(OC(=O)CN2C(=O)C3C4CCC(C4)C3C2=O)c1C (configuration not stated) | – | inconclusive: 22.4 µM [cytotoxic, single point]
CCCCNc1c(-c2ccc(OC)c(SC3CCCCC3)c2)nc2ccc(C)cn12 | – | inconclusive: 37.2 µM [cytotoxic, single point] and inconclusive: 29.1 µM [cytotoxic, single point]
CCN(CC)CCCNC(=O)c1cc2c(-c3ccc(Cl)cc3)nn(C)c2s1 | – | active: 23.1 µM
O=C(CCCn1c(=O)c2sccc2n(Cc2ccc(F)cc2)c1=O)NCc1ccco1 | – | inconclusive: 12.6 µM [cytotoxic, partial curve]
Cc1ccc(S(=O)(=O)c2cc3c(=O)n4ccccc4nc3n(Cc3ccco3)c2=N)cc1 | – | inconclusive: 35.5 µM [cytotoxic, single point]
COc1ccccc1C1CC(c2ccccc2)Nc2ncnn21 (configuration not stated) | – | inconclusive: 35.5 µM [cytotoxic, single point]
COC(=O)c1ccc(C2C(Oc3ccccc3)C(=O)N2CCc2ccc(F)cc2)cc1 (configuration not stated) | – | inconclusive: 22.4 µM [cytotoxic, single point]
COc1ccc(-n2c(SCC(=O)Nc3nccs3)nnc2-c2ccccc2)cc1 | – | inconclusive: 23.1 µM [cytotoxic, single point]
COc1ccc(NC(=O)CCCN(C)S(=O)(=O)c2ccc(C)cc2)cc1 | inactive: -3.5% | –
COc1ccccc1CNC(=O)COc1ccccc1OC | inactive: 1.98% | –
CCn1cc(CN2CCCC(C(=O)Nc3ccc(-c4nc5ccccc5[nH]4)cc3)C2)c(C)n1 (configuration not stated) | – | inconclusive: 29.1 µM [cytotoxic, single point]
COc1ccccc1N1CCN(Cc2c[nH]c3ccccc23)CC1 | – | inconclusive: 5.8 µM [cytotoxic, partial curve]
CN(C)/C=C/C(=O)/C=C/c1ccc(Cl)cc1 | – | inconclusive: 4.11 µM [cytotoxic, full curve]
CCC(=O)NC(=S)NNC(=O)c1ccc(OC)cc1 | – | inconclusive: 10 µM [cytotoxic, single point]
CCCC(C(=O)OCCN(CC)CC)(c1ccccc1)c1ccccc1 | – | inconclusive: 16.4 µM [cytotoxic, partial curve]
COc1ccc(CCNC(=O)C(C(=O)c2ccccc2)n2ccccc2=O)cc1OC (configuration not stated) | inactive: 6.62% | –

SMILES | activity, negative = toxicity | Potency
CCCS(=O)(=O)NC(=O)C1(C)CCN(C(=O)c2ccc(F)c(C)c2)C1 (configuration not stated) | inactive: 3.22% | –
O=C(/C=C/c1cccc(Br)c1)c1ccc2c(c1)OCO2 | – | inconclusive: 29.1 µM [cytotoxic, single point]
NC(C(=O)O)C1ON=C(Cl)C1O (configuration not stated) | – | inconclusive: 0.651 µM [cytotoxic, full curve, poor fit]
CC(=O)c1ccc(S(=O)(=O)N2CCC(c3nc4ccccc4[nH]3)CC2)cc1 | inactive: -6.26% | –
c1ccc2sc(-c3ccc4c(c3)OCO4)nc2c1 | – | inconclusive: 23.1 µM [cytotoxic, single point]
Cc1ccc2c(c1)C1NC(=S)NC(C)(O2)C1C(=O)Nc1ccc(Cl)cc1 (configuration not stated) | inactive: -10.9% | –
OC[C@@H]1CN(Cc2ccco2)C[C@H](n2cnc3c(NC4CCC4)ncnc32)O1 | inactive: 19% | –
CN(C)Cc1csc(NC(=O)Nc2cccc(Cl)c2)n1 | inconclusive: -30.8% [cytotoxic] | –
Cc1cc(N2C(=O)C(O)=C(C(=O)c3ccc(C)o3)C2c2cccs2)no1 (configuration not stated) | inactive: -26% | –
O=c1[nH]c2cc3c(cc2cc1CN(Cc1ccco1)C(=S)NCC1CCCO1)OCCO3 (configuration not stated) | – | inconclusive: 16.4 µM [cytotoxic, single point]
C/C(=N/NC(=O)c1nnn(-c2nonc2N)c1COc1ccccc1)c1ccccc1 | inactive: 0.618% | –
Cc1snc(SCC(=O)c2ccc(Cl)cc2)c1C#N | inactive: 6.34% | –
CC(O)CC(C(=O)NNc1ccccc1)C(=O)NNc1ccccc1 (configuration not stated) | – | active: 2.31 µM
COC(=O)[C@]12CCCCC=C1N(CCC1=CCCCC1)C(=O)[C@H](CC(=O)NCCCN1CCCC1=O)C2 | – | inconclusive: 29.1 µM [cytotoxic, single point]
CCN(C(=O)c1ccc(S(=O)(=O)N2CCOCC2)cc1)C1CCS(=O)(=O)C1 (configuration not stated) | inactive: 5.55% | –
CCOc1cc(CNC2CCCC2)cc(Cl)c1OCc1ccccc1 | – | inconclusive: 18.4 µM [cytotoxic, single point]
CN(C)c1ccc(/C=N/NC(=O)c2ccccc2Cl)cc1 | – | active: 8.2 µM
CCc1[nH]nc2c1C(c1ccsc1)C(C#N)=C(N)O2 (configuration not stated) | inactive: 7.06% | –
CCN(CC)c1ccc(/C=N/N=C(N)N)c(O)c1 | – | active: 1.64 µM
O=C(CSc1cn(CCNC(=O)c2ccc3ccccc3c2)c2ccccc12)NCc1ccco1 | – | inconclusive: 29.1 µM [cytotoxic, single point]
OC(Cc1cccc(C=NN2CCOCC2)n1)(C(F)(F)F)C(F)(F)F | inactive: -10.4% | –
CCOC(=O)COc1ccc(Br)cc1/C=C\c1[nH]c(=O)[nH]c(=O)c1[N+](=O)[O-] | inactive: -10.6% | –
COc1ccc(C)cc1NC(=O)CSc1ccc(-c2ccccn2)nn1 | – | inconclusive: 29.1 µM [cytotoxic, single point]
